Experimental data from article PMC12820563.
The other results are listed elsewhere or left out. The list includes weakly bound sequences.

Each sequence was assayed against T1, MBP-FoxP3dN (UniProt Q99JB6) (assay: PD-seq (MBP pull-down with sequencing)). Details: 20 mM Tris-HCl pH 7.5, 100 mM NaCl, 1.5 mM MgCl2, 0.4 uM protein, 0.1 uM dsDNA library, 30 min, room temperature, amylose pull-down; high values mean tight binding; double strand, one strand shown.
T1 sequence: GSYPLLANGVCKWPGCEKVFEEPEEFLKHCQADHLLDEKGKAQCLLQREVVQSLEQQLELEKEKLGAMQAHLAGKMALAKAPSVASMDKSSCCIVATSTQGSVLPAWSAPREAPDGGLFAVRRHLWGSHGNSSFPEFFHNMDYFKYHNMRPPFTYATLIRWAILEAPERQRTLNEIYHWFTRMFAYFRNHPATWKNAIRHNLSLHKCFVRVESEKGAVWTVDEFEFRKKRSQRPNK

| Sequence | binding signal (RPM ratio (pull-down/input)) |
| --- | --- |
| GATGATTGTTCTCCCAGCTGATGAATTCTCGTGGTCGAGTAAACAAATTTTCCTAATCTTTCTGTTCAAGCGCCATCTAC | 0.27 |
| GATGATTGTTCTCCCAGCTGATGAATTGCAGCCGTCGAGTAAACAAATTTTCCTAATCTTTCTGTTCAAGCGCCATCTAC | 0.786 |
| GATGATTGTTCTCCCAGCTGATGAATTCTAAACTTCGAGTAAACAAATTTTCCTAATCTTTCTGTTCAAGCGCCATCTAC | 0.381 |
| GATGATTGTTCTCCCAGCTGATGAATTTGAAGGCTCGAGTAAACAAATTTTCCTAATCTTTCTGTTCAAGCGCCATCTAC | 0.363 |
| GATGATTGTTCTCCCAGCTGATGAATTGAATAATTCGAGTAAACAAATTTTCCTAATCTTTCTGTTCAAGCGCCATCTAC | 0.288 |
| GATGATTGTTCTCCCAGCTGATGAATTGCAGTTGTCGAGTAAACAAATTTTCCTAATCTTTCTGTTCAAGCGCCATCTAC | 1.57 |
| GATGATTGTTCTCCCAGCTGATGAATTACCGCTCTCGAGTAAACAAATTTTCCTAATCTTTCTGTTCAAGCGCCATCTAC | 0.454 |
| GATGATTGTTCTCCCAGCTGATGAATTAGGACGCTCGAGTAAACAAATTTTCCTAATCTTTCTGTTCAAGCGCCATCTAC | 0.484 |
| GATGATTGTTCTCCCAGCTGATGAATTTGTAGTTTCGAGTAAACAAATTTTCCTAATCTTTCTGTTCAAGCGCCATCTAC | 5.3 |
| GATGATTGTTCTCCCAGCTGATGAATTAGTAACATCGAGTAAACAAATTTTCCTAATCTTTCTGTTCAAGCGCCATCTAC | 1.11 |
| GATGATTGTTCTCCCAGCTGATGAATTACACAGATCGAGTAAACAAATTTTCCTAATCTTTCTGTTCAAGCGCCATCTAC | 0.357 |
| GATGATTGTTCTCCCAGCTGATGAATTGATTTCATCGAGTAAACAAATTTTCCTAATCTTTCTGTTCAAGCGCCATCTAC | 0.584 |
| GATGATTGTTCTCCCAGCTGATGAATTCCTCATGTCGAGTAAACAAATTTTCCTAATCTTTCTGTTCAAGCGCCATCTAC | 0.325 |
| GATGATTGTTCTCCCAGCTGATGAATTTACGTTTTCGAGTAAACAAATTTTCCTAATCTTTCTGTTCAAGCGCCATCTAC | 0.716 |
| GATGATTGTTCTCCCAGCTGATGAATTCACAAAATCGAGTAAACAAATTTTCCTAATCTTTCTGTTCAAGCGCCATCTAC | 0.214 |
| GATGATTGTTCTCCCAGCTGATGAATTGAAGGCGTCGAGTAAACAAATTTTCCTAATCTTTCTGTTCAAGCGCCATCTAC | 0.614 |
| GATGATTGTTCTCCCAGCTGATGAATTAAGAAACTCGAGTAAACAAATTTTCCTAATCTTTCTGTTCAAGCGCCATCTAC | 0.593 |
| GATGATTGTTCTCCCAGCTGATGAATTTCCGCAGTCGAGTAAACAAATTTTCCTAATCTTTCTGTTCAAGCGCCATCTAC | 0.485 |
| GATGATTGTTCTCCCAGCTGATGAATTCTTGAAGTCGAGTAAACAAATTTTCCTAATCTTTCTGTTCAAGCGCCATCTAC | 0.217 |
| GATGATTGTTCTCCCAGCTGATGAATTCGTGCGTTCGAGTAAACAAATTTTCCTAATCTTTCTGTTCAAGCGCCATCTAC | 1.74 |
| GATGATTGTTCTCCCAGCTGATGAATTATGGAGATCGAGTAAACAAATTTTCCTAATCTTTCTGTTCAAGCGCCATCTAC | 0.294 |

| Sequence | binding signal (RPM ratio (pull-down/input)) |
| --- | --- |
| GATGATTGTTCTCCCAGCTGATGAATTGAGCCTGTCGAGTAAACAAATTTTCCTAATCTTTCTGTTCAAGCGCCATCTAC | 4.04 |
| GATGATTGTTCTCCCAGCTGATGAATTAATTATATCGAGTAAACAAATTTTCCTAATCTTTCTGTTCAAGCGCCATCTAC | 0.719 |
| GATGATTGTTCTCCCAGCTGATGAATTCCGAGTATCGAGTAAACAAATTTTCCTAATCTTTCTGTTCAAGCGCCATCTAC | 0.57 |
| GATGATTGTTCTCCCAGCTGATGAATTGAGACTCTCGAGTAAACAAATTTTCCTAATCTTTCTGTTCAAGCGCCATCTAC | 1.67 |
| GATGATTGTTCTCCCAGCTGATGAATTAGGGGTGTCGAGTAAACAAATTTTCCTAATCTTTCTGTTCAAGCGCCATCTAC | 1.01 |
| GATGATTGTTCTCCCAGCTGATGAATTGAGCCAGTCGAGTAAACAAATTTTCCTAATCTTTCTGTTCAAGCGCCATCTAC | 1.18 |
| GATGATTGTTCTCCCAGCTGATGAATTTTTTCCCTCGAGTAAACAAATTTTCCTAATCTTTCTGTTCAAGCGCCATCTAC | 0.157 |
| GATGATTGTTCTCCCAGCTGATGAATTGTTGAAATCGAGTAAACAAATTTTCCTAATCTTTCTGTTCAAGCGCCATCTAC | 0.557 |
| GATGATTGTTCTCCCAGCTGATGAATTGTATGGATCGAGTAAACAAATTTTCCTAATCTTTCTGTTCAAGCGCCATCTAC | 1.09 |
| GATGATTGTTCTCCCAGCTGATGAATTCCCGATCTCGAGTAAACAAATTTTCCTAATCTTTCTGTTCAAGCGCCATCTAC | 0.219 |
| GATGATTGTTCTCCCAGCTGATGAATTCACAGTCTCGAGTAAACAAATTTTCCTAATCTTTCTGTTCAAGCGCCATCTAC | 0.384 |
| GATGATTGTTCTCCCAGCTGATGAATTTCTGGCCTCGAGTAAACAAATTTTCCTAATCTTTCTGTTCAAGCGCCATCTAC | 0.3 |
| GATGATTGTTCTCCCAGCTGATGAATTGAGTAAGTCGAGTAAACAAATTTTCCTAATCTTTCTGTTCAAGCGCCATCTAC | 0.372 |
| GATGATTGTTCTCCCAGCTGATGAATTCCCCGGATCGAGTAAACAAATTTTCCTAATCTTTCTGTTCAAGCGCCATCTAC | 0.142 |
| GATGATTGTTCTCCCAGCTGATGAATTTGTACCATCGAGTAAACAAATTTTCCTAATCTTTCTGTTCAAGCGCCATCTAC | 2.37 |
| GATGATTGTTCTCCCAGCTGATGAATTGCTTTACTCGAGTAAACAAATTTTCCTAATCTTTCTGTTCAAGCGCCATCTAC | 1.22 |
| GATGATTGTTCTCCCAGCTGATGAATTTTTTCTGTCGAGTAAACAAATTTTCCTAATCTTTCTGTTCAAGCGCCATCTAC | 0.199 |
| GATGATTGTTCTCCCAGCTGATGAATTAGAGGTCTCGAGTAAACAAATTTTCCTAATCTTTCTGTTCAAGCGCCATCTAC | 0.486 |
| GATGATTGTTCTCCCAGCTGATGAATTCGGGGGCTCGAGTAAACAAATTTTCCTAATCTTTCTGTTCAAGCGCCATCTAC | 0.39 |
| GATGATTGTTCTCCCAGCTGATGAATTACCGACGTCGAGTAAACAAATTTTCCTAATCTTTCTGTTCAAGCGCCATCTAC | 0.316 |
| GATGATTGTTCTCCCAGCTGATGAATTGGGGTATTCGAGTAAACAAATTTTCCTAATCTTTCTGTTCAAGCGCCATCTAC | 0.979 |

| Sequence | binding signal (RPM ratio (pull-down/input)) |
| --- | --- |
| GATGATTGTTCTCCCAGCTGATGAATTACCTACCTCGAGTAAACAAATTTTCCTAATCTTTCTGTTCAAGCGCCATCTAC | 0.293 |
| GATGATTGTTCTCCCAGCTGATGAATTAGTGGCGTCGAGTAAACAAATTTTCCTAATCTTTCTGTTCAAGCGCCATCTAC | 1.48 |
| GATGATTGTTCTCCCAGCTGATGAATTTGCCCACTCGAGTAAACAAATTTTCCTAATCTTTCTGTTCAAGCGCCATCTAC | 0.555 |
| GATGATTGTTCTCCCAGCTGATGAATTTACATAGTCGAGTAAACAAATTTTCCTAATCTTTCTGTTCAAGCGCCATCTAC | 0.469 |
| GATGATTGTTCTCCCAGCTGATGAATTCAGCAACTCGAGTAAACAAATTTTCCTAATCTTTCTGTTCAAGCGCCATCTAC | 4.78 |
| GATGATTGTTCTCCCAGCTGATGAATTCCTGGGATCGAGTAAACAAATTTTCCTAATCTTTCTGTTCAAGCGCCATCTAC | 0.206 |
| GATGATTGTTCTCCCAGCTGATGAATTCAGTTCATCGAGTAAACAAATTTTCCTAATCTTTCTGTTCAAGCGCCATCTAC | 0.641 |
| GATGATTGTTCTCCCAGCTGATGAATTGACTTGATCGAGTAAACAAATTTTCCTAATCTTTCTGTTCAAGCGCCATCTAC | 0.281 |
| GATGATTGTTCTCCCAGCTGATGAATTAGCGAATTCGAGTAAACAAATTTTCCTAATCTTTCTGTTCAAGCGCCATCTAC | 1.06 |
| GATGATTGTTCTCCCAGCTGATGAATTGCTTGTTTCGAGTAAACAAATTTTCCTAATCTTTCTGTTCAAGCGCCATCTAC | 2.41 |
| GATGATTGTTCTCCCAGCTGATGAATTGGAGGTGTCGAGTAAACAAATTTTCCTAATCTTTCTGTTCAAGCGCCATCTAC | 0.523 |
| GATGATTGTTCTCCCAGCTGATGAATTTTTATTCTCGAGTAAACAAATTTTCCTAATCTTTCTGTTCAAGCGCCATCTAC | 0.391 |
| GATGATTGTTCTCCCAGCTGATGAATTAGCATCTTCGAGTAAACAAATTTTCCTAATCTTTCTGTTCAAGCGCCATCTAC | 4.84 |
| GATGATTGTTCTCCCAGCTGATGAATTTAACTGCTCGAGTAAACAAATTTTCCTAATCTTTCTGTTCAAGCGCCATCTAC | 0.395 |
| GATGATTGTTCTCCCAGCTGATGAATTTTGCCCCTCGAGTAAACAAATTTTCCTAATCTTTCTGTTCAAGCGCCATCTAC | 2.15 |
| GATGATTGTTCTCCCAGCTGATGAATTCGCGCCATCGAGTAAACAAATTTTCCTAATCTTTCTGTTCAAGCGCCATCTAC | 2.63 |
| GATGATTGTTCTCCCAGCTGATGAATTAGGCCGGTCGAGTAAACAAATTTTCCTAATCTTTCTGTTCAAGCGCCATCTAC | 0.493 |
| GATGATTGTTCTCCCAGCTGATGAATTATACAGGTCGAGTAAACAAATTTTCCTAATCTTTCTGTTCAAGCGCCATCTAC | 0.455 |
| GATGATTGTTCTCCCAGCTGATGAATTACGCGCTTCGAGTAAACAAATTTTCCTAATCTTTCTGTTCAAGCGCCATCTAC | 0.98 |
| GATGATTGTTCTCCCAGCTGATGAATTGGTCTTCTCGAGTAAACAAATTTTCCTAATCTTTCTGTTCAAGCGCCATCTAC | 0.432 |
| GATGATTGTTCTCCCAGCTGATGAATTAAAGAAGTCGAGTAAACAAATTTTCCTAATCTTTCTGTTCAAGCGCCATCTAC | 0.172 |
